# Assay results taken from article PMC7819943, “Rice protein-binding microarrays: a tool to detect cis-acting elements near promoter regions in rice”.
# This is one part of the list.
# Target: T1, OsWOX13 (Oryza sativa, UniProt Q5QMM3 1-267)
# T1 sequence: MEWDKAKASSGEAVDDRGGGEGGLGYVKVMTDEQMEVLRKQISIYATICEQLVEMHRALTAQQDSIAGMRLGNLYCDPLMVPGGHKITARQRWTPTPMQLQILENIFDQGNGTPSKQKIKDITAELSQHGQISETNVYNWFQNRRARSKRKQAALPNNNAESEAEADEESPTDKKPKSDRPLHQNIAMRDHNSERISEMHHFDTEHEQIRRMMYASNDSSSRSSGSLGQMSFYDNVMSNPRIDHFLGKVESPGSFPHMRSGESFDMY
# Assay: protein-binding microarray (RPBM); PBS, 2% BSA, 51.3 ng/ul salmon testes DNA, 50 uM zinc acetate, 200 nM TF, 25 C, 1 h; high values mean tight binding
# Details: protein: recombinant; tags: N-terminal polyhistidine and DsRed monomer fusion (pET32a); label: CyDye5-dUTP incorporated in the synthesized complementary strand; 3' TTTTT single-stranded linker to array surface; dsDNA, one strand shown
# Summary of the method: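 Binding signal here means per-feature fluorescence intensity in arbitrary units. The values were read on an Axon 4000B scanner after a custom Agilent array, double-stranded by primer extension with Cy5-dUTP, was incubated with 200 nM protein at 25 °C for 1 h in PBS with 2% BSA, salmon testes DNA and 50 µM zinc acetate, then washed. The proteins were transcription factors with an N-terminal polyhistidine tag and DsRed, expressed in E. coli BL21-CodonPlus and purified on Ni–NTA.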
row,Sequence,binding signal
1,GAGTGTTTGATTGCTGCAGTGTGTCTCGGCAAAGCGCGACCGGAGTCACCTAGTGCAG,20100 fluorescence intensity (a.u.)
2,ACGTAATTATAATTATTTTATTGTGAGTTGTTTTATTACTCGGAGTCACCTAGTGCAG,26500 fluorescence intensity (a.u.)
3,GCATCAAGATTACGGGTTAACTTTCTTTAGTTAACTCATGCGGAGTCACCTAGTGCAG,3180 fluorescence intensity (a.u.)
4,GGGCTATAAATTTATAGTCAACTATAACACGGACTTTAAGCGGAGTCACCTAGTGCAG,6880 fluorescence intensity (a.u.)
5,ATGACTGTCAAATTATAACACATATAGCTTATCCTGGAAGCGGAGTCACCTAGTGCAG,31700 fluorescence intensity (a.u.)
6,CCTAATTAGTCTTTTAGTGATAGGCGAAGTATCCGTCAACCGGAGTCACCTAGTGCAG,42300 fluorescence intensity (a.u.)
7,CGAGTTTAATTGCCATAATAATACGCAATACCCAAATATACGGAGTCACCTAGTGCAG,14600 fluorescence intensity (a.u.)
8,TGTCAATCAGCGAGCTGACAGCGAACCCCGACGCGCTTCCCGGAGTCACCTAGTGCAG,30700 fluorescence intensity (a.u.)
9,ATTAATTAGATGGTTGAATGACTCCCTTAACTCATGTTAGCGGAGTCACCTAGTGCAG,45700 fluorescence intensity (a.u.)
10,TGCTAATCTGATTTGATCCAAATTATATGGTTATTAATCACGGAGTCACCTAGTGCAG,11000 fluorescence intensity (a.u.)
11,GGTGATTGGGAGCGAGCGCAGCCGCCTACTTCTAGGGAGCCGGAGTCACCTAGTGCAG,45500 fluorescence intensity (a.u.)
12,AAATTAAATTATACTCAATACACAAGTTTGAATCTGATTCCGGAGTCACCTAGTGCAG,11400 fluorescence intensity (a.u.)
13,AACTGATCATAACTTCTGCCCAATCAACTCCAGAGTATTCCGGAGTCACCTAGTGCAG,7250 fluorescence intensity (a.u.)
14,AGGATCGTTAATTAATAGTGACCCCGGTGACAACCTATCCCGGAGTCACCTAGTGCAG,20700 fluorescence intensity (a.u.)
15,CGCGCAATTACCTCATTATCCTCTAGATTTTGTGGCAACTCGGAGTCACCTAGTGCAG,8460 fluorescence intensity (a.u.)
16,CAATTTTGCTGATAGGCATAGATTAATCTCTTTGAAAATCCGGAGTCACCTAGTGCAG,4070 fluorescence intensity (a.u.)
17,AATTGATTGGACTCCACCAACATTAAAATAGTTGTTGATGCGGAGTCACCTAGTGCAG,56400 fluorescence intensity (a.u.)
18,ATTGATTGCAGCGTGTCATCAGAAACTATAGGACGTGAACCGGAGTCACCTAGTGCAG,42600 fluorescence intensity (a.u.)
19,TGTGAACGTAATTTTAATATAATTTTATTGAGGCTAGGGACGGAGTCACCTAGTGCAG,12500 fluorescence intensity (a.u.)
20,GCAGGATTGACAGAACTCGGGGAGGTCTCCTGATCCGGTGCGGAGTCACCTAGTGCAG,41400 fluorescence intensity (a.u.)
21,AAACTTAATTACAGAATCCGTTAGTAAACCGCGAGACGAACGGAGTCACCTAGTGCAG,18400 fluorescence intensity (a.u.)

row,Sequence,binding signal
1,TTAATTATTTTATCTAATTTATAAGTTATTTATTCATCATCGGAGTCACCTAGTGCAG,13400 fluorescence intensity (a.u.)
2,TTATGATTTTCATATAAATCAAATGGGACTTTAATTAATCCGGAGTCACCTAGTGCAG,11500 fluorescence intensity (a.u.)
3,CTTGGCTGAAACAAATCAATTAACATCACAAACAGGAGAACGGAGTCACCTAGTGCAG,11300 fluorescence intensity (a.u.)
4,GGGATTGGTGTGGATTGGGTGGAGAATTACTCCCACCCCGCGGAGTCACCTAGTGCAG,24500 fluorescence intensity (a.u.)
5,GAATTTAGGACCAGTCACTAATTAACTATATAGTATATATCGGAGTCACCTAGTGCAG,3600 fluorescence intensity (a.u.)
6,ATATTGATTAAGCATAAGCAGGTCGGCTCTTTGACCAAACCGGAGTCACCTAGTGCAG,14300 fluorescence intensity (a.u.)
7,AGTGATCATTGATCTAAACTACTTGCAGGTGACGCACACGCGGAGTCACCTAGTGCAG,6200 fluorescence intensity (a.u.)
8,ATTAATTAATTAATTAATTAATTAATACTCCTCTCTTCCACGGAGTCACCTAGTGCAG,65500 fluorescence intensity (a.u.)
9,ACTCGAAATTTGTTGGTAGGATTAGTGAATAGAGACGGTGCGGAGTCACCTAGTGCAG,3210 fluorescence intensity (a.u.)
10,TTTAAGGGGCAATGAATCTGTAATTGAAAGCATGGTTTCACGGAGTCACCTAGTGCAG,5480 fluorescence intensity (a.u.)
11,TCCTTAAATATCGGGCAATCATCGTCACACACAGTGACAGCGGAGTCACCTAGTGCAG,3610 fluorescence intensity (a.u.)
12,ATTTTGACTGATGTGACGTTTGCGTGGCTGGTTTGATTAGCGGAGTCACCTAGTGCAG,28900 fluorescence intensity (a.u.)
13,TCCCGGTAATTCCAATTCCAATTCCAATTCCAATTCATCTCGGAGTCACCTAGTGCAG,8480 fluorescence intensity (a.u.)
14,CCCCATTTGTAAATTGTGATTGGCTAGAGAAATTCAAACCCGGAGTCACCTAGTGCAG,23900 fluorescence intensity (a.u.)
15,CCAATTAAAATTTTCTTACTAAACTCTTACCCTCAATGATCGGAGTCACCTAGTGCAG,4890 fluorescence intensity (a.u.)
16,CAAATCAGTCAAATAGTCAAACAAAACACACACCACCAGCCGGAGTCACCTAGTGCAG,5890 fluorescence intensity (a.u.)
17,GGAGAGATTTATTGGATTAGCATCAGCAGCAAGGGCGGCGCGGAGTCACCTAGTGCAG,6020 fluorescence intensity (a.u.)
18,CCTGTGATTAACTAATCTCCCTTCTGCATATACAGCACCCCGGAGTCACCTAGTGCAG,48900 fluorescence intensity (a.u.)
19,TTTTACGATAATTTGATCAAATCATATATATGTATAGTAACGGAGTCACCTAGTGCAG,14700 fluorescence intensity (a.u.)
20,TGCGTGCATGATTAGTTATTACAGGTCGTCATTGATTGAGCGGAGTCACCTAGTGCAG,27800 fluorescence intensity (a.u.)
21,CATTAATCAATCTAAACGTGCAACCTCCCAACGTGCAAGCCGGAGTCACCTAGTGCAG,23800 fluorescence intensity (a.u.)
